Some entries of the source have several records that differ or are many. The other results are left out here. There may be further records. Values that stand side by side repeat one measurement across runs, samples, wells, individuals or studies. Records carry a tag for their origin. Letters count within one entry.
Legend:
Rattus norvegicus [1] = species on record: Rattus norvegicus; experiment: DrugMatrix - Regimen: Daily Repeat; type: toxicity, organism-based, Sprague-Dawley; parameters: regimen Daily Repeat, gender Male, age 6-8 weeks; conditions: in vivo, 0 mg/kg, dose level Control
Rattus norvegicus [2] = species on record: Rattus norvegicus; type: toxicity, organism-based, Sprague-Dawley; conditions: in vivo, sc, 0 mg/kg, 24 h, vehicle control, route mini-PUMP - SUBCUTANEOUS, dose level Control, time 1 day, vehicle 100 % SALINE
[3] = po, 72 h, tissue Blood, route oral GAVAGE, time 3 day, vehicle .5 % CMC
[4] = sc, 72 h, tissue Blood, route mini-PUMP - SUBCUTANEOUS, time 3 day, vehicle 100 % SALINE
[5] = sc, 120 h, tissue Blood, route mini-PUMP - SUBCUTANEOUS, time 5 day, vehicle 100 % SALINE

## COc1ccc2c3c1O[C@H]1C[C@@H](O)C=C[C@@]31CCN(C)C2 [GALANTAMINE]
Rattus norvegicus [1]; [3]
  ABSOLUTE EOSINOPHIL: 47.67 CELLS/uL [study A] and 0 CELLS/uL [study B]
  NUCLEATED RED BLOOD CELLS: 0 /100WBC [study A] and 0.33 /100WBC [study B]
Rattus norvegicus [1]; po, 72 h, tissue Plasma, route oral GAVAGE, time 3 day, vehicle .5 % CMC
  LACTATE DEHYDROGENASE: 597.5 u/L [study A] and 154.33 u/L [study B]
Rattus norvegicus [1]; po, 120 h, tissue Blood, route oral GAVAGE, time 5 day, vehicle .5 % CMC
  ABSOLUTE MONOCYTE: 102.83 CELLS/uL [study A] and 32 CELLS/uL [study B]

## CC(C)NCC(O)c1ccc(O)c(O)c1 (centres undefined) [ISOPROTERENOL]
Rattus norvegicus [1]; [4]
  ABSOLUTE BASOPHIL: 0.0333 CELLS/uL [study A] and 0 CELLS/uL [study B]
  ABSOLUTE EOSINOPHIL: 0.0533 CELLS/uL [study A] and 77.17 CELLS/uL [study B]
  ABSOLUTE LYMPHOCYTE: 9.92 CELLS/uL [study A] and 14293.83 CELLS/uL [study B]
  ABSOLUTE MONOCYTE: 0.23 CELLS/uL [study A] and 354 CELLS/uL [study B]
Rattus norvegicus [1]; sc, 72 h, tissue Plasma, route mini-PUMP - SUBCUTANEOUS, time 3 day, vehicle 100 % SALINE
  LIPASE: 214.67 u/L [study A] and 9 u/L [study B]
Rattus norvegicus [1]; [5]
  ABSOLUTE BASOPHIL: 0.0233 CELLS/uL [study A] and 0 CELLS/uL [study B]
  ABSOLUTE EOSINOPHIL: 0.0367 CELLS/uL [study A] and 0 CELLS/uL [study B]
  ABSOLUTE LYMPHOCYTE: 8.92 CELLS/uL [study A] and 14257.33 CELLS/uL [study B]
  ABSOLUTE MONOCYTE: 0.24 CELLS/uL [study A] and 326 CELLS/uL [study B]
Rattus norvegicus [1]; sc, 120 h, tissue Plasma, route mini-PUMP - SUBCUTANEOUS, time 5 day, vehicle 100 % SALINE
  LIPASE: 268.33 u/L [study A] and 9.33 u/L [study B]
Rattus norvegicus [2]; tissue Blood
  ABSOLUTE BASOPHIL: 0.0533 CELLS/uL [study A] and 0 CELLS/uL [study B]
  ABSOLUTE EOSINOPHIL: 0.0333 CELLS/uL [study A] and 26.17 CELLS/uL [study B]
  ABSOLUTE LYMPHOCYTE: 8.34 CELLS/uL [study A] and 10985.83 CELLS/uL [study B]
  ABSOLUTE MONOCYTE: 0.3 CELLS/uL [study A] and 234.5 CELLS/uL [study B]
Rattus norvegicus [2]; tissue Plasma
  LIPASE: 29 u/L [study A] and 8.5 u/L [study B]

Source: ChEMBL document CHEMBL3885881, “DrugMatrix”
